# Hit rate of the full screen: of about 3,200 compounds, about 110 (3.4%) showed an effect of 50% or more. Some of the results follow.
# Tested on: T1, V. cholerae SAD30
# T1 construct: SAD30
# Set-up: species or system S. aureus MSSA476 (TSB) or V. cholerae SAD30 (LB); 384-well bacterial growth screen at 25 uM, OD600 relative to DMSO control
# Conditions: relative growth, OD600, LB; 25 µM; inhibitor
row,SMILES,% of control remaining [%]
1,"C=CC(=O)NCc1ccc(C(=O)N2CCC(C(C)(C)O)CC2)cc1 [2-J20, N-({4-[4-(2-hydroxypropan-2-yl)piperidine-1-carbonyl]phenyl}methyl)prop-2-enamide]",92.6662
2,"CC(C)c1nc(C=C(C#N)C(=O)NC2CCCCC2)c2ccccn12 [9-B15, 2-cyano-N-cyclohexyl-3-[3-(propan-2-yl)imidazo[1,5-a]pyridin-1-yl]prop-2-enamide]",92.2502
3,"CC(Cl)C(=O)N1CCn2c(C#N)ccc2C1C (centres unmarked) [6-F22, 2-(2-chloropropanoyl)-1-methyl-1H,2H,3H,4H-pyrrolo[1,2-a]pyrazine-6-carbonitrile]",96.0091
4,"C=CC(=O)N(CC)CC(=O)N1CCc2c(ncn2CC)C1 [2-H08, N-ethyl-N-(2-{1-ethyl-1H,4H,5H,6H,7H-imidazo[4,5-c]pyridin-5-yl}-2-oxoethyl)prop-2-enamide]",93.1294
5,"Cc1nn(-c2ccccc2)c(Cl)c1C=C(C#N)C(=O)NC(C)C [9-J17, 3-(5-chloro-3-methyl-1-phenyl-1H-pyrazol-4-yl)-2-cyano-N-(propan-2-yl)prop-2-enamide]",79.8776
6,"N#CC(=Cc1ccc(OC(F)F)cc1)C(=O)N1CCCc2ccccc21 [8-E03, 3-[4-(difluoromethoxy)phenyl]-2-(1,2,3,4-tetrahydroquinoline-1-carbonyl)prop-2-enenitrile]",87.6275
7,"CCOc1cc(C=C(C#N)C(=O)Nc2nccs2)cc(Cl)c1O [9-K22, 3-(3-chloro-5-ethoxy-4-hydroxyphenyl)-2-cyano-N-(1,3-thiazol-2-yl)prop-2-enamide]",97.5527
8,"C=CC(=O)Nc1cccc(S(=O)(=O)C2CCOCC2)c1 [3-M08, N-[3-(oxane-4-sulfonyl)phenyl]prop-2-enamide]",98.265
9,"COc1ccc(NC(=O)C(C#N)=Cc2cccc(O)c2)cc1Cl [9-C08, N-(3-chloro-4-methoxyphenyl)-2-cyano-3-(3-hydroxyphenyl)prop-2-enamide]",84.7723
10,"CC(Cl)C(=O)N1CCN(c2nccc3sccc23)CC1 (centres unmarked) [7-G10, 2-chloro-1-(4-{thieno[3,2-c]pyridin-4-yl}piperazin-1-yl)propan-1-one]",70.1801
11,"CC(C)C1C(=O)Nc2ccc(Cl)cc2N1C(=O)CCl (centres unmarked) [5-C11, 6-chloro-4-(2-chloroacetyl)-3-(propan-2-yl)-1,2,3,4-tetrahydroquinoxalin-2-one]",85.9094
12,"Cc1cc(C(=O)CCl)c(C)n1Cc1ccccc1 [10-M14, 1-(1-benzyl-2,5-dimethyl-1H-pyrrol-3-yl)-2-chloroethan-1-one]",109.721
13,"O=C(CCl)N(Cc1ccsc1)C1CC1 [5-N18, 2-chloro-N-cyclopropyl-N-[(thiophen-3-yl)methyl]acetamide]",92.4661
14,"C=CC(=O)N(CC)CC(=O)N1CCCC1c1cn(C)nc1C (centres unmarked) [2-N12, N-{2-[2-(1,3-dimethyl-1H-pyrazol-4-yl)pyrrolidin-1-yl]-2-oxoethyl}-N-ethylprop-2-enamide]",86.0272
15,"N#CCSc1ccccc1NC(=O)CCl [6-C11, 2-chloro-N-{2-[(cyanomethyl)sulfanyl]phenyl}acetamide]",90.0938
16,"COc1ccc(NC(C)=O)cc1NC(=O)C(C)Cl (centres unmarked) [4-M08, 2-chloro-N-(5-acetamido-2-methoxyphenyl)propanamide]",98.6845
17,"C=CC(=O)NCCCn1cnc2ccccc21 [2-P11, N-[3-(1H-1,3-benzodiazol-1-yl)propyl]prop-2-enamide]",103.32
18,"O=C(CCl)C1(F)CCCCC1 [10-K19, 2-chloro-1-(1-fluorocyclohexyl)ethan-1-one]",99.7467
19,"C=CC(=O)N1C2C=C(c3nccn3C)CC1CC2 (centres unmarked) [3-G03, 1-[3-(1-methyl-1H-imidazol-2-yl)-8-azabicyclo[3.2.1]oct-2-en-8-yl]prop-2-en-1-one]",111.145
20,"CC(C)NC(=O)C(C#N)=Cc1cccc(Cl)c1Cl [9-C07, 2-cyano-3-(2,3-dichlorophenyl)-N-(propan-2-yl)prop-2-enamide]",84.9082
21,"C=CC(=O)N1CCC(C(=O)NC2CCN(C(=O)C(C)(C)C)CC2)CC1 [3-I21, N-[1-(2,2-dimethylpropanoyl)piperidin-4-yl]-1-(prop-2-enoyl)piperidine-4-carboxamide]",96.3242
22,"C=CC(=O)Nc1cc(NC(=O)c2cnn(-c3ccccc3)c2)ccc1F [2-G11, N-[4-fluoro-3-(prop-2-enamido)phenyl]-1-phenyl-1H-pyrazole-4-carboxamide]",76.1459

row,SMILES,% of control remaining [%]
1,"N#CC(=Cc1ccco1)C(=O)Nc1cc2c(cc1Cl)NC(=O)CO2 [9-D20, N-(6-chloro-3-oxo-3,4-dihydro-2H-1,4-benzoxazin-7-yl)-2-cyano-3-(furan-2-yl)prop-2-enamide]",90.0748
2,"C=CC(=O)N(C)Cc1ncc(C(F)(F)F)n1C [2-D19, N-methyl-N-{[1-methyl-5-(trifluoromethyl)-1H-imidazol-2-yl]methyl}prop-2-enamide]",94.6734
3,"C=CC(=O)N1CCOC(Cn2cncn2)C1 (centres unmarked) [1-F20, 1-{2-[(1H-1,2,4-triazol-1-yl)methyl]morpholin-4-yl}prop-2-en-1-one]",90.2846
4,"CCN(CC)c1ccc(NC(=O)CCl)cc1 [6-N10, 2-chloro-N-[4-(diethylamino)phenyl]acetamide]",90.5489
5,"O=C(CCl)Nc1ccnn1Cc1cccs1 [5-O13, 2-chloro-N-{1-[(thiophen-2-yl)methyl]-1H-pyrazol-5-yl}acetamide]",85.5732
6,"CCCN(CC1CC1)C(=O)CCl [5-H11, 2-chloro-N-(cyclopropylmethyl)-N-propylacetamide]",93.1386
7,"C=CC(=O)N1CCOC2(CCCC2)C1 [3-I11, 1-{6-oxa-9-azaspiro[4.5]decan-9-yl}prop-2-en-1-one]",77.0924
8,"CCN(CC)S(=O)(=O)c1ccc(Cl)c(NC(=O)CCl)c1 [5-J12, 2-chloro-N-[2-chloro-5-(diethylsulfamoyl)phenyl]acetamide]",93.4748
9,"Cc1cc(C=C(C#N)C(=O)Nc2ccncc2)c(C)n1C1CC1 [8-K14, 2-cyano-3-(1-cyclopropyl-2,5-dimethyl-1H-pyrrol-3-yl)-N-(pyridin-4-yl)prop-2-enamide]",66.6893
10,"CC(Cl)C(=O)Nc1ccc2c(c1)C(=O)c1ccccc1C2=O (centres unmarked) [4-G06, 2-chloro-N-(9,10-dioxo-9,10-dihydroanthracen-2-yl)propanamide]",77.1188
11,"C=CC(=O)NCC(=O)Nc1ccc2c[nH]nc2c1 [1-L11, N-{[(2H-indazol-6-yl)carbamoyl]methyl}prop-2-enamide]",90.7324
12,"Cc1ccc(CN(C(=O)CCl)C2CC2)o1 [6-E03, 2-chloro-N-cyclopropyl-N-[(5-methylfuran-2-yl)methyl]acetamide]",97.6775
13,"C=CC(=O)NCc1nc2c(s1)CCCC2 [1-G18, N-[(4,5,6,7-tetrahydro-1,3-benzothiazol-2-yl)methyl]prop-2-enamide]",87.145
14,"CC(Cl)C(=O)Nc1cccc(-c2ncc3n2CCCC3)c1 (centres unmarked) [5-F19, 2-chloro-N-(3-{5H,6H,7H,8H-imidazo[1,5-a]pyridin-3-yl}phenyl)propanamide]",78.344
15,"C=CC(=O)NC1CCC(c2nc(-c3ccccc3)n[nH]2)CC1 (centres unmarked) [1-P05, N-[4-(3-phenyl-1H-1,2,4-triazol-5-yl)cyclohexyl]prop-2-enamide]",97.3094
16,"Cc1cc(C(=O)CCl)c(C)n1-c1ccccc1 [10-L20, 2-chloro-1-(2,5-dimethyl-1-phenyl-1H-pyrrol-3-yl)ethan-1-one]",100.682
17,"Cc1cc(C(=O)CCl)c(C)n1CCc1cccs1 [10-F16, 2-chloro-1-{2,5-dimethyl-1-[2-(thiophen-2-yl)ethyl]-1H-pyrrol-3-yl}ethan-1-one]",110.189
18,"CC(NC(=O)CCl)c1cc(F)ccc1N(C)C (centres unmarked) [5-L11, 2-chloro-N-{1-[2-(dimethylamino)-5-fluorophenyl]ethyl}acetamide]",95.3242
19,"N#CC(=Cc1cccnc1)C(=O)Nc1cccc2ccccc12 [8-L17, 2-cyano-N-(naphthalen-1-yl)-3-(pyridin-3-yl)prop-2-enamide]",72.6717
20,"C=CC(=O)NCC(F)(F)c1cccnc1 [1-O12, N-[2,2-difluoro-2-(pyridin-3-yl)ethyl]prop-2-enamide]",87.4439
21,"Cc1cc(C(=O)CCl)c(C)n1-c1cccc(Cl)c1 [10-N18, 2-chloro-1-[1-(3-chlorophenyl)-2,5-dimethyl-1H-pyrrol-3-yl]ethan-1-one]",92.4216
22,"C=CC(=O)N[C@H]1CCO[C@@H]1c1ccnn1C [2-K19, N-[(2S,3S)-2-(1-methyl-1H-pyrazol-5-yl)oxolan-3-yl]prop-2-enamide]",92.203

# Reference: article PMC11995724, “Antibiotic target discovery by integrated phenotypic and activity-based profiling of electrophilic fragments” (Cell chemical biology, 2025)
